# Measured values taken from the supplement of paper PMC8728848.
# Some of the results follow.
# B1: Flo5 (Saccharomyces cerevisiae), P38894 (protein)
# chain: MGSSHHHHHHSSGLVPRGSHMSGATEACLPAGQRKSGMNINFYQYSLKDSSTYSNAAYMAYGYASKTKLGSVGGQTDISIDYNIPCVSSSGTFPCPQEDSYGNWGCKGMGACSNSQGIAYWSTDLFGFYTTPTNVTLEMTGYFLPPQTGSYTFSFATVDDSAILSVGGSIAFECCAQEQPPITSTNFTINGIKPWDGSLPDNITGTVYMYAGYYYPLKVVYSNAVSWGTLPISVELPDGTTVSDNFEGYVYSFDDDLSQSNCTIPDPSIH
# Legend:
# Test in all cases: glycan array binding signal (z-score within array); higher = stronger binding
# Conditions in all cases: glycan notation: IUPAC condensed, linker removed
# GalNAc(a1-3)Gal = target: GalNAc(a1-3)Gal
# Outline: (§1)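 The binding signal is a Z-score computed within each array. Data were drawn from 3228 arrays in the Consortium for Functional Glycomics database, restricted to those with a known protein sequence. Scores were averaged over arrays of the same protein sequence at different concentrations or buffers, and over linkers, and negative values can be taken as non-binding.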
# GalNAc(a1-3)GalNAc = target: GalNAc(a1-3)GalNAc
# Outline: as §1
# GalNAc(b1-3)Gal = target: GalNAc(b1-3)Gal
# Outline: as §1
# [1] = target: GalNAc(b1-3)Gal(a1-4)Gal(b1-4)GlcNAc
# Outline: as §1
# [2] = target: GalNAc(b1-3)Gal(a1-4)Gal(b1-4)GlcNAc(b1-3)Gal(b1-4)Glc
# Outline: as §1
# GalNAc(b1-3)GalNAc = target: GalNAc(b1-3)GalNAc
# Outline: as §1
# GalNAc(b1-4)GlcNAc = target: GalNAc(b1-4)GlcNAc
# Outline: as §1
# [3] = target: GalNAc(b1-4)GlcNAc(b1-2)Man(a1-3)[GalNAc(b1-4)GlcNAc(b1-2)Man(a1-6)]Man(b1-4)GlcNAc(b1-4)GlcNAc
# Outline: as §1
# Glc(a1-4)Glc = target: Glc(a1-4)Glc
# Outline: as §1
# Glc(a1-6)Glc(a1-6)Glc = target: Glc(a1-6)Glc(a1-6)Glc
# Outline: as §1
# Glc(b1-4)Glc = target: Glc(b1-4)Glc
# Outline: as §1
# Glc(b1-6)Glc = target: Glc(b1-6)Glc
# Outline: as §1
# GlcA(b1-3)Gal = target: GlcA(b1-3)Gal
# Outline: as §1
# GlcA(b1-3)GlcNAc = target: GlcA(b1-3)GlcNAc
# Outline: as §1
# GlcA(b1-6)Gal = target: GlcA(b1-6)Gal
# Outline: as §1
# [4] = target: GlcNAc(a1-3)Gal(b1-4)GlcNAc
# Outline: as §1
# [5] = target: GlcNAc(a1-4)Gal(b1-3)GlcNAc
# Outline: as §1
# [6] = target: GlcNAc(a1-4)Gal(b1-4)GalNAc
# Outline: as §1
# [7] = target: GlcNAc(a1-4)Gal(b1-4)GlcNAc
# Outline: as §1
# [8] = target: GlcNAc(a1-4)Gal(b1-4)GlcNAc(b1-3)Gal(b1-4)Glc
# Outline: as §1
# [9] = target: GlcNAc(a1-4)Gal(b1-4)GlcNAc(b1-3)Gal(b1-4)GlcNAc
# Outline: as §1
# [10] = target: GlcNAc(a1-4)Gal(b1-4)GlcNAc(b1-3)Gal(b1-4)GlcNAc(b1-3)Gal(b1-4)GlcNAc
# Outline: as §1
# [11] = target: GlcNAc(a1-4)Gal(b1-4)GlcNAc(b1-3)Gal(b1-4)[Fuc(a1-3)]GlcNAc(b1-3)Gal(b1-4)[Fuc(a1-3)]GlcNAc
# Outline: as §1
# [12] = target: GlcNAc(a1-6)Gal(b1-4)GlcNAc
# Outline: as §1
# [13] = target: GlcNAc(b1-2)Gal(b1-3)GalNAc
# Outline: as §1
# [14] = target: GlcNAc(b1-2)Man(a1-3)[GlcNAc(b1-2)Man(a1-6)]Man(b1-4)GlcNAc(b1-4)GlcNAc
# Outline: as §1
# [15] = target: GlcNAc(b1-2)Man(a1-3)[GlcNAc(b1-2)Man(a1-6)]Man(b1-4)GlcNAc(b1-4)[Fuc(a1-6)]GlcNAc
# Outline: as §1
# GlcNAc(b1-3)Gal = target: GlcNAc(b1-3)Gal
# Outline: as §1
# [16] = target: GlcNAc(b1-3)Gal(b1-3)GalNAc
# Outline: as §1
# GlcNAc(b1-3)Gal(b1-4)Glc = target: GlcNAc(b1-3)Gal(b1-4)Glc
# Outline: as §1
# [17] = target: GlcNAc(b1-3)Gal(b1-4)GlcNAc
# Outline: as §1
# [18] = target: GlcNAc(b1-3)Gal(b1-4)GlcNAc(b1-3)Gal(b1-4)GlcNAc
# Outline: as §1
# GlcNAc(b1-3)GalNAc = target: GlcNAc(b1-3)GalNAc
# Outline: as §1
# GlcNAc(b1-3)Man = target: GlcNAc(b1-3)Man
# Outline: as §1
# [19] = target: GlcNAc(b1-3)[GlcNAc(b1-4)][GlcNAc(b1-6)]GlcNAc
# Outline: as §1
# [20] = target: GlcNAc(b1-3)[GlcNAc(b1-6)]Gal(b1-4)GlcNAc
# Outline: as §1
# [21] = target: GlcNAc(b1-3)[GlcNAc(b1-6)]GalNAc
# Outline: as §1
# [22] = target: GlcNAc(b1-4)Gal(b1-4)GlcNAc
# Outline: as §1
binder,measurement,setting,value
B1,glycan array binding signal (z-score),GalNAc(a1-3)Gal,-0.054
same,glycan array binding signal (z-score),GalNAc(a1-3)GalNAc,-0.225
same,glycan array binding signal (z-score),GalNAc(b1-3)Gal,-0.083
same,glycan array binding signal (z-score),[1],-0.191
same,glycan array binding signal (z-score),[2],-0.103
same,glycan array binding signal (z-score),GalNAc(b1-3)GalNAc,-0.197
same,glycan array binding signal (z-score),GalNAc(b1-4)GlcNAc,-0.253
same,glycan array binding signal (z-score),[3],-0.09
same,glycan array binding signal (z-score),Glc(a1-4)Glc,-0.173
same,glycan array binding signal (z-score),Glc(a1-6)Glc(a1-6)Glc,-0.181
same,glycan array binding signal (z-score),Glc(b1-4)Glc,-0.144
same,glycan array binding signal (z-score),Glc(b1-6)Glc,-0.203
same,glycan array binding signal (z-score),GlcA(b1-3)Gal,-0.123
same,glycan array binding signal (z-score),GlcA(b1-3)GlcNAc,-0.227
same,glycan array binding signal (z-score),GlcA(b1-6)Gal,-0.095
same,glycan array binding signal (z-score),[4],-0.194
same,glycan array binding signal (z-score),[5],-0.071
same,glycan array binding signal (z-score),[6],-0.153
same,glycan array binding signal (z-score),[7],-0.266
same,glycan array binding signal (z-score),[8],-0.192
same,glycan array binding signal (z-score),[9],-0.139
same,glycan array binding signal (z-score),[10],0.084
same,glycan array binding signal (z-score),[11],0.989
same,glycan array binding signal (z-score),[12],-0.154
same,glycan array binding signal (z-score),[13],-0.171
same,glycan array binding signal (z-score),[14],-0.155
same,glycan array binding signal (z-score),[15],0.311
same,glycan array binding signal (z-score),GlcNAc(b1-3)Gal,-0.205
same,glycan array binding signal (z-score),[16],-0.194
same,glycan array binding signal (z-score),GlcNAc(b1-3)Gal(b1-4)Glc,-0.146
same,glycan array binding signal (z-score),[17],-0.207
same,glycan array binding signal (z-score),[18],-0.027
same,glycan array binding signal (z-score),GlcNAc(b1-3)GalNAc,-0.184
same,glycan array binding signal (z-score),GlcNAc(b1-3)Man,-0.112
same,glycan array binding signal (z-score),[19],-0.245
same,glycan array binding signal (z-score),[20],-0.156
same,glycan array binding signal (z-score),[21],-0.169
same,glycan array binding signal (z-score),[22],-0.15
